{
  "source": "PubChem BioAssay AID1671194",
  "about": "(National Center for Advancing Translational Sciences (NCATS), 2021)",
  "note": "The campaign covered roughly 140,000 compounds. About 240 (0.17%) were called active. Inconclusive results, whose numbers are uncertain, are shown with a selection of clear calls. Calls come from the whole dose curve; as a rule, active = well fitted inhibition curve with a large enough effect; inconclusive = small, poorly fitted or top-dose-only effect; inactive = no such curve, though single readings can be large or run the other way. Potencies beside an inconclusive call are fits to weak or partial responses and may not hold up. Potency is the fitted concentration of half-maximal effect; tags give direction and shape of the fitted curve.",
  "data": [
    {"test": "Primary qHTS assay for inhibitors of alpha-synuclein gene (SNCA) expression; note: nearly all actives have a fitted effect of over 45% in size", "settings": "HEK-293 SNCA-luciferase knock-in, luminescence, 24 h; series mostly up to 57.2 µM", "values": [
      {"smiles": "C=CCNC(=O)c1ccc(N2CC3CC(C2)[C@H]2CCCC(=O)N2C3)nc1", "note": "(stereo not given in full)", "Potency": "inactive"},
      {"smiles": "O=C(NCc1ccc2c(c1)OCO2)c1nc(-c2cccnc2)c2cnccn12", "Potency": "inactive"},
      {"smiles": "CCc1cccc(NC(=O)CSc2nnc(-c3cc4occc4n3C)n2-c2ccccc2C)c1", "Potency": "inconclusive: 28.2 µM [inhibitor, partial curve, poor fit]"},
      {"smiles": "COc1cccc(-n2c(=O)c3sc4ccccc4c3n(Cc3c(F)cccc3Cl)c2=O)c1", "Potency": "inconclusive: 0.178 µM [inhibitor, full curve, poor fit]"},
      {"smiles": "COc1ccccc1-c1ccc2c(C(=O)N3CCOCC3)nn(C)c2n1", "Potency": "inactive"},
      {"smiles": "NC(=O)CN1CCC(C(=O)NCc2cn3cccnc3n2)CC1", "Potency": "inactive"},
      {"smiles": "COc1cccc(NC(=O)N(CCC(C)C)C2CCN(C(C)C)CC2)c1", "Potency": "inconclusive: 17.8 µM [inhibitor, single point]"},
      {"smiles": "CCCSc1ncc(Cl)c(C(=O)N(Cc2ccccc2)c2ccc(OC)cc2)n1", "Potency": "inconclusive: 22.4 µM [inhibitor, partial curve, poor fit]"},
      {"smiles": "CC(=O)c1cccc(NC(=O)Cn2c(-c3ccc(F)cc3)nc(C)cc2=O)c1", "Potency": "inconclusive: 2.82 µM [inhibitor, partial curve, poor fit]"},
      {"smiles": "COc1ccc(Nc2ccnc(N3CCN(C(=O)Cc4ccc(F)cc4)CC3)n2)cc1", "Potency": "inconclusive: 28.2 µM [inhibitor, single point]"},
      {"smiles": "Cc1cc(C(=O)N2CCN(c3cccc(Cl)c3)CC2)c2c(C)nn(-c3ccccc3Cl)c2n1", "Potency": "inconclusive: 17.8 µM [inhibitor, single point]"},
      {"smiles": "CCOC(=O)CCNC(=O)N1CCc2c(nc(-c3ccc(F)cc3)[nH]c2=O)C1", "Potency": "inconclusive: 7.08 µM [inhibitor, single point]"},
      {"smiles": "CC(C)(C)C1CCc2c(sc(NC(=O)c3ccco3)c2C(=O)Nc2ccccc2Cl)C1", "note": "(stereo not given)", "Potency": "inconclusive: 3.16 µM [inhibitor, full curve, poor fit]"},
      {"smiles": "Cc1nnsc1C(=O)Oc1ccc(Cl)cc1", "Potency": "inactive"},
      {"smiles": "COc1ncccc1C(=O)N1CCC(CCC(=O)N2CCC(Cc3ccccc3)CC2)CC1", "Potency": "inconclusive: 1.41 µM [inhibitor, partial curve, poor fit]"},
      {"smiles": "O=C(NCc1ccc(Cl)cc1)c1cn2cc(-c3ccc(C(F)(F)F)cc3)sc2n1", "Potency": "inconclusive: 1.41 µM [inhibitor, partial curve, poor fit]"},
      {"smiles": "COc1ccccc1NC(=O)N1CCN(Cc2nc3ccc(C)cc3o2)CC1", "Potency": "inconclusive: 3.98 µM [inhibitor, single point]"},
      {"smiles": "O=C(CCC1CCN(C(=O)[C@@H]2C[C@@H]3C=C[C@H]2C3)CC1)Nc1ccc2c(c1)OCCO2", "Potency": "inconclusive: 7.94 µM [inhibitor, single point]"},
      {"smiles": "Cc1cc(C)c(NC(=O)Cn2c(=O)n(CC3CCCO3)c(=O)c3ccccc32)c(C)c1", "note": "(stereo not given)", "Potency": "inconclusive: 0.158 µM [inhibitor, partial curve, poor fit]"},
      {"smiles": "Cn1cc(S(=O)(=O)N2CCCC2)cc1C(=O)N1CCN(c2cccc(Cl)c2)CC1", "Potency": "inconclusive: 35.5 µM [inhibitor, single point]"},
      {"smiles": "COc1cccc(CC(=O)N2CCN(C(=O)c3nnn4c3COC(c3ccccc3)C4)CC2)c1", "note": "(stereo not given)", "Potency": "inactive"},
      {"smiles": "CCc1ccc(-n2nc(C)c3c(C)cc(=O)n(CC(=O)Nc4cc(C)ccc4C)c32)cc1", "Potency": "inconclusive: 25.1 µM [inhibitor, single point]"},
      {"smiles": "Cc1ccc(CN2CC(Oc3ccccc3C(=O)N3CCOCC3)C2)cc1C", "Potency": "inactive"},
      {"smiles": "Cc1c(Cl)cccc1N1C(N)=C(C#N)C(c2cc(CN3CCOCC3)cs2)C2=C1CCCC2=O", "note": "(stereo not given)", "Potency": "inconclusive: 20 µM [inhibitor, single point]"},
      {"smiles": "O=c1c2sc3ccccc3c2n(Cc2cccc(C(F)(F)F)c2)c(=O)n1Cc1ccccc1", "Potency": "inconclusive: 7.08 µM [inhibitor, single point]"},
      {"smiles": "CSc1ccc(CCNC(=O)c2ccc(CS(=O)(=O)c3ccc(Br)cc3)o2)cc1", "Potency": "inconclusive: 35.5 µM [inhibitor, single point]"},
      {"smiles": "O=C([C@@H]1CCCN1c1nccc(Nc2ccccc2Cl)n1)N1CCC(c2ccccc2)CC1", "Potency": "inconclusive: 7.94 µM [inhibitor, partial curve, poor fit]"},
      {"smiles": "CCCN(CCC)c1nc(-c2ccccc2F)nc2ccccc12", "Potency": "inconclusive: 35.5 µM [inhibitor, single point]"},
      {"smiles": "CCc1ccccc1NC(=O)CSC1=Nc2ccccc2C2=NC(Cc3ccccc3)C(=O)N12", "note": "(stereo not given)", "Potency": "inconclusive: 31.6 µM [inhibitor, single point]"},
      {"smiles": "COCCCNc1nc2c(S(=O)(=O)c3ccc(C)cc3)nnn2c2ccccc12", "Potency": "inconclusive: 3.16 µM [inhibitor, full curve]"},
      {"smiles": "COCC(=O)NC[C@H]1CCN(Cc2cc(C)nn2C)C[C@H]1N(C)C", "Potency": "inconclusive: 39.8 µM [inhibitor, single point]"},
      {"smiles": "Cc1noc(C)c1S(=O)(=O)N1CCC2(CC1)CC(Cc1ccccc1)CCO2", "note": "(stereo not given)", "Potency": "inactive"},
      {"smiles": "O=C(NCc1cccc(F)c1)C1CCCN1c1nccc(Nc2ccccc2F)n1", "note": "(stereo not given)", "Potency": "inactive"},
      {"smiles": "O=C(NCc1ccc(Cl)cc1)c1cc2n(n1)CC(c1ccc(Cl)cc1)OC2", "note": "(stereo not given)", "Potency": "inconclusive: 1.26 µM [inhibitor, full curve, poor fit]"},
      {"smiles": "Cc1ccc(NC(=O)CCC2CCN(S(=O)(=O)c3ccccc3C)CC2)cc1F", "Potency": "inactive"},
      {"smiles": "Cc1noc([C@H]2CCN(S(=O)(=O)c3ccc4c(c3)CCC4)C[C@H]2NC(=O)C2CC2)n1", "Potency": "inactive"},
      {"smiles": "COCCn1ncc(N2CCCC(CC(=O)Nc3cc(OC)ccc3OC)C2)cc1=O", "note": "(stereo not given)", "Potency": "inactive"},
      {"smiles": "COc1cccc(NC(=O)Cn2c(N(C)Cc3ccccc3)nc(C)cc2=O)c1", "Potency": "inconclusive: 12.6 µM [inhibitor, partial curve, poor fit]"},
      {"smiles": "Cc1nn(-c2ccc(F)cc2)c(-n2cccc2)c1C(=O)NCCCN1CCN(c2cccc(Cl)c2)CC1", "Potency": "inconclusive: 22.4 µM [inhibitor, single point]"},
      {"smiles": "CN(Cc1ccccc1)C(=O)c1ccnc(-c2nnc3ccc(N4CCOCC4)nn23)c1", "Potency": "inactive"}
    ]}
  ]
}
